# Only a part is listed here, and it is no random draw. The list includes weakly bound sequences.
# Molecular target: T1, GST-Nv-NF-kB (Cys allele) (UniProt E5G601)
# T1 sequence: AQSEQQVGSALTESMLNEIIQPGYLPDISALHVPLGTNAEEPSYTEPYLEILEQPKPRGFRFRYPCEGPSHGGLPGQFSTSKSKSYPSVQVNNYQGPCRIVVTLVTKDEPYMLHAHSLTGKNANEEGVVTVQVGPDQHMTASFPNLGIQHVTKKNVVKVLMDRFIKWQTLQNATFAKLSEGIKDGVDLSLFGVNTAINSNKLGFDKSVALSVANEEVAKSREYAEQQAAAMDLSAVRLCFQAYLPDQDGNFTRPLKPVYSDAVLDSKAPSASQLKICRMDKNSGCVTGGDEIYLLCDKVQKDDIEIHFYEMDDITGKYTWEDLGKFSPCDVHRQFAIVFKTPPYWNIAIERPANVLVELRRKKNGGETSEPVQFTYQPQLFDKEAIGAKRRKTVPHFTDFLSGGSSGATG
# Assay: protein-binding microarray (PBM)
# Settings: PBM: ~300 nM protein, 6 mM HEPES pH 7.8, 80 mM KCl, 0.5 mM EDTA, 0.5 mM EGTA, 6% glycerol, 35 ng/ul poly-dIdC, 1% milk, 1 h, room temperature; Ap Aiptasia and Nv Nematostella (sea anemones) / Co Capsaspora / Aq Amphimedon (sponge) / Dm Drosophila / Hu human; RHD is the Rel homology domain; high values mean tight binding; most listed sequences are background and not binding sites; double strand, one strand shown
row,Sequence,binding signal [z-score]
1,CCGATTAACATCAGGGAGTCCCATGATGTTAATCGGGTCTTGATTCGCTTGACGCTGCTG,3.33
2,CCGATTAACATCAAATTTCCCTATGATGTTAATCGGGTCTTGATTCGCTTGACGCTGCTG,6.5
3,CCGATTAACATCACGGATATCCCTGATGTTAATCGGGTCTTGATTCGCTTGACGCTGCTG,0.744
4,CCGATTAACATCAGGGGAATCTATGATGTTAATCGGGTCTTGATTCGCTTGACGCTGCTG,8.91
5,CCGATTAACATCAGGGCCTCCCCTGATGTTAATCGGGTCTTGATTCGCTTGACGCTGCTG,4.43
6,CCGATTAACATCAAGAGACCCCCTGATGTTAATCGGGTCTTGATTCGCTTGACGCTGCTG,2.88
7,CCGATTAACATCAATTTCCCACCTGATGTTAATCGGGTCTTGATTCGCTTGACGCTGCTG,3.38
8,CCGATTAACATCACGAAAACCCCTGATGTTAATCGGGTCTTGATTCGCTTGACGCTGCTG,5.36
9,CCGATTAACATCACACAATCCCCTGATGTTAATCGGGTCTTGATTCGCTTGACGCTGCTG,6.65
10,CCGATTAACATCAAGCAATTCCCTGATGTTAATCGGGTCTTGATTCGCTTGACGCTGCTG,4.28
11,CCGATTAACATCATAAACCCCCATGATGTTAATCGGGTCTTGATTCGCTTGACGCTGCTG,4.95
12,CCGATTAACATCACAAAAAACCCTGATGTTAATCGGGTCTTGATTCGCTTGACGCTGCTG,4.37
13,CCGATTAACATCAAATTCCCAGCTGATGTTAATCGGGTCTTGATTCGCTTGACGCTGCTG,3.6
14,CCGATTAACATCAGGGGCTTTTATGATGTTAATCGGGTCTTGATTCGCTTGACGCTGCTG,9.51
15,CCGATTAACATCAGGGGTAAAACTGATGTTAATCGGGTCTTGATTCGCTTGACGCTGCTG,1.97
16,CCGATTAACATCAGGCACTCCCCTGATGTTAATCGGGTCTTGATTCGCTTGACGCTGCTG,3.18
17,CCGATTAACATCAAATCACCCCCTGATGTTAATCGGGTCTTGATTCGCTTGACGCTGCTG,4.59
18,CCGATTAACATCAATTTTCCCACTGATGTTAATCGGGTCTTGATTCGCTTGACGCTGCTG,3.99
19,CCGATTAACATCAGGCAACCCCATGATGTTAATCGGGTCTTGATTCGCTTGACGCTGCTG,-0.12
20,CCGATTAACATCAGGGGGTTTAATGATGTTAATCGGGTCTTGATTCGCTTGACGCTGCTG,5.26

row,Sequence,binding signal [z-score]
1,CCGATTAACATCAAGGGGAATAATGATGTTAATCGGGTCTTGATTCGCTTGACGCTGCTG,8.01
2,CCGATTAACATCAGGGGCCCCCCTGATGTTAATCGGGTCTTGATTCGCTTGACGCTGCTG,3.78
3,CCGATTAACATCAGGGGAAGCTATGATGTTAATCGGGTCTTGATTCGCTTGACGCTGCTG,5.26
4,CCGATTAACATCAAAAATCCCTATGATGTTAATCGGGTCTTGATTCGCTTGACGCTGCTG,5.21
5,CCGATTAACATCAGACTTCCCCCTGATGTTAATCGGGTCTTGATTCGCTTGACGCTGCTG,7.38
6,CCGATTAACATCAAAGAAATCCCTGATGTTAATCGGGTCTTGATTCGCTTGACGCTGCTG,4.34
7,CCGATTAACATCAAGCGTTCCCCTGATGTTAATCGGGTCTTGATTCGCTTGACGCTGCTG,5.36
8,CCGATTAACATCAAACTTCCCCGTGATGTTAATCGGGTCTTGATTCGCTTGACGCTGCTG,8.41
9,CCGATTAACATCAAATCATCCCCTGATGTTAATCGGGTCTTGATTCGCTTGACGCTGCTG,5.38
10,CCGATTAACATCACGGGATTTCCTGATGTTAATCGGGTCTTGATTCGCTTGACGCTGCTG,4.51
11,CCGATTAACATCAAAATAATCCCTGATGTTAATCGGGTCTTGATTCGCTTGACGCTGCTG,4.62
12,CCGATTAACATCAGGGGGTAAGATGATGTTAATCGGGTCTTGATTCGCTTGACGCTGCTG,3.13
13,CCGATTAACATCAGGACACCCCCTGATGTTAATCGGGTCTTGATTCGCTTGACGCTGCTG,5.22
14,CCGATTAACATCAAACCTTCCCCTGATGTTAATCGGGTCTTGATTCGCTTGACGCTGCTG,5.62
15,CCGATTAACATCAGTAATTCCCATGATGTTAATCGGGTCTTGATTCGCTTGACGCTGCTG,4.3
16,CCGATTAACATCAGGGAATACACTGATGTTAATCGGGTCTTGATTCGCTTGACGCTGCTG,2.43
17,CCGATTAACATCAGAACCCCCCCTGATGTTAATCGGGTCTTGATTCGCTTGACGCTGCTG,4.85
18,CCGATTAACATCAGGGAAAAAAATGATGTTAATCGGGTCTTGATTCGCTTGACGCTGCTG,5.81
19,CCGATTAACATCAGAATTCCCCATGATGTTAATCGGGTCTTGATTCGCTTGACGCTGCTG,10.3

# From article PMC5700166
